Among all 150,000 compounds or so, about 540 (0.36%) showed an effect of 50% or more. The list shows a part of the results.
The compounds below were run on Plasmodium falciparum (assay: Primary screen in NF54 nanoGlo assay, in single point, at 2uM, 72h; a lower Z score goes with more inhibition). Conditions: timepoint 72 hour.
Format: functional, Erythrocyte
For O=C(CC1=CCCC1)N[C@H]1C[C@H](c2cc(N3CCOCC3)ncn2)C1, the “% Inhibition” value was -9% and the Z score was 1.64. With CC(C)(NS(C)(=O)=O)c1noc(-c2cncc(F)c2)n1 the “% Inhibition” value was -3% and the Z score was 0.42. In the case of Cc1cc(C(=O)NCc2noc(C)n2)[nH]n1, the “% Inhibition” value was -9% and the Z score was 1.44. With O=C(c1nc2ccccc2s1)N1CC[C@H](c2ccc3c(c2)OCO3)C1 the “% Inhibition” value was 0% and the Z score was 0.05. For C[C@H]1CCCN(CCCNC(=O)c2ccc(N3CCCCS3(=O)=O)cc2)C1, the “% Inhibition” value was -13% and the Z score was 1.78. With CC(C)Oc1cccc(CC(=O)N2CC[C@H](CO)C[C@@H]2C)c1 the “% Inhibition” value was -2% and the Z score was 0.25. c1ccc2ncc(-c3cncnc3)cc2c1 was tested, and the “% Inhibition” value was -4% and the Z score was 0.83. In the case of Cc1ccc2oc(-c3nc([C@H]4CCOC4)no3)cc2n1, the “% Inhibition” value was 15% and the Z score was -1.8. In the case of O=C(c1cnsn1)N1CCC(OCC2CCCC2)CC1, the “% Inhibition” value was -2% and the Z score was 0.47. For O=C(C[C@H]1CCOC1)NCc1cscn1, the “% Inhibition” value was 5% and the Z score was -0.77. In the case of O=C(O)CC1CN(C(=O)C2CC2c2ccccc2OC(F)(F)F)CCO1 (stereo not drawn), the “% Inhibition” value was 2% and the Z score was -0.22. COc1ccc(CCNS(=O)(=O)c2c3c(c(OC)c4c2OCO4)C(=O)N(C)CC3)cc1OC was tested, and the “% Inhibition” value was -10% and the Z score was 1.26. In the case of CN(CCCNC(=O)c1nccnc1-c1nc2ccccc2s1)Cc1ccccc1, the “% Inhibition” value was -10% and the Z score was 1.15. Cc1cc(C(=O)N2CCC[C@H](c3nccn3CC3CC3)C2)nc(C)n1 was tested, and the “% Inhibition” value was 1% and the Z score was -0.15. With CC1=C(CCN2CCOC[C@@H]2CC(=O)N2CCCOCC2)C(C)(C)CCC1 the “% Inhibition” value was 2% and the Z score was -0.3. For CN(CC(=O)OCc1nnc(-c2ccccc2)o1)S(=O)(=O)c1cccnc1, the “% Inhibition” value was -14% and the Z score was 2.17. With O=C(NC[C@H]1CCCCN1CCO)c1cncc(F)c1 the “% Inhibition” value was -8% and the Z score was 1.03. CCc1nc(-c2cc(NC(=O)c3ccccc3)c(C)s2)no1 was tested, and the “% Inhibition” value was -15% and the Z score was 1.5. Cc1ccc(OCc2cc(C(=O)NCc3csc(N)n3)no2)cn1 was tested, and the “% Inhibition” value was -5% and the Z score was 0.72. For COc1ccc2oc(-c3ccc(CNC(=O)c4ccc(C)cc4)cc3)nc2c1, the “% Inhibition” value was 38% and the Z score was -1.21. COc1ccccc1CNC(=O)c1ccc(-c2c(-c3ccc(C)cc3)ncn2C2CCCC2)o1 was tested, and the “% Inhibition” value was 14% and the Z score was -2.43. With CN(C(=O)c1ncccc1Br)c1ccc(Cl)cn1 the “% Inhibition” value was -5% and the Z score was 0.8. For CN(C)C(=O)N1CC[C@@H]2CN(C(=O)CCn3nnc4ccccc43)C[C@@H]21, the “% Inhibition” value was -29% and the Z score was 2.67. In the case of CN(CC1(N(C)C)CCC1)C(=O)NCc1ccc(C#N)cc1F, the “% Inhibition” value was 10% and the Z score was -1.29. For O=S(=O)(c1ccc2c(c1)CCC2)N1CCC(CN2CCC3(CCCCO3)CC2)CC1, the “% Inhibition” value was -18% and the Z score was 3.65. In the case of Cn1ncnc1N1C(=O)N[C@](C)(c2ccc(Cl)c(Cl)c2)C1=O, the “% Inhibition” value was -7% and the Z score was 0.74. CCc1noc(CC)c1CN[C@@H](C)CC(=O)Nc1cccc(C)c1C was tested, and the “% Inhibition” value was -5% and the Z score was 0.81. For Cc1ccc2cc3c(nc2c1)N(C(=O)COc1ccccc1)CC3, the “% Inhibition” value was -5% and the Z score was 0.87. COc1ccc(-c2nnc(C(C)=O)n2Nc2ccc(S(N)(=O)=O)cc2)cc1 was tested, and the “% Inhibition” value was -19% and the Z score was 2.22. In the case of Cc1ccc(NC2=NC(N)=NC3(CCCC3)N2)c(C)c1, the “% Inhibition” value was -16% and the Z score was 1.99. For COc1ccc(CCNc2cc([C@H]3CCOC3)nc(N)n2)cc1OC, the “% Inhibition” value was -10% and the Z score was 1.27. In the case of CCCn1cc(CNC(=O)N(C)Cc2cnn(C(C)C)c2)cn1, the “% Inhibition” value was -15% and the Z score was 1.69. With COc1ccc(NC(=O)C2CC(=O)C2)c(Br)c1 the “% Inhibition” value was 11% and the Z score was -1.42. CC1CC(CCNc2ccc(S(N)(=O)=O)cc2C(F)(F)F)CCO1 (stereo not drawn) was tested, and the “% Inhibition” value was -4% and the Z score was 0.59. CS(=O)(=O)N1CC(N2CC(F)(F)C[C@H]2C(=O)N2CCC(Cc3ccccc3)CC2)C1 was tested, and the “% Inhibition” value was 4% and the Z score was -0.68. For NCC(=O)N1CCc2[nH]nc(C(c3ccccc3)c3ccccc3)c2C1, the “% Inhibition” value was -15% and the Z score was 2.92. Cc1ccc(N2C[C@@H](c3nc(-c4cc5c(C)nn(-c6ccccc6)c5s4)no3)CC2=O)cc1 was tested, and the “% Inhibition” value was 29% and the Z score was -3.35. In the case of Cc1nccc(O[C@H]2CCN(C(=O)Cn3cccn3)C2)n1, the “% Inhibition” value was -2% and the Z score was 0.25. For CO[C@H]1COCC[C@@H]1NC(=O)Cc1ccc(F)c(F)c1, the “% Inhibition” value was -5% and the Z score was 0.42. With COC(=O)c1sc(NCCNS(C)(=O)=O)nc1C the “% Inhibition” value was -1% and the Z score was 0.13. O=C(Cn1cc(C(F)(F)F)ccc1=O)c1ccc(N2CCCC2=O)cc1 was tested, and the “% Inhibition” value was -12% and the Z score was 1.67. For C=CCNC(=NC1CC1)NCCc1cc(F)cc2c1OCOC2, the “% Inhibition” value was 1% and the Z score was -0.15. O=C(NC1CCN(Cc2ccccc2)CC1)c1nccnc1-c1nc2ccccc2s1 was tested, and the “% Inhibition” value was 13% and the Z score was -1.57. Cc1cccc2nc(NCCn3ccnc3C(C)C)oc12 was tested, and the “% Inhibition” value was 5% and the Z score was -0.89. Cc1cc2nc(C(=O)N3CCc4c([nH]n(CCO)c4=O)C3)cc(C)n2n1 was tested, and the “% Inhibition” value was -9% and the Z score was 1.34. In the case of Cc1c(CCNS(=O)(=O)c2cnc3c(cnn3C)c2)cnn1C, the “% Inhibition” value was 7% and the Z score was -1.2. CCN(CCS(C)(=O)=O)C(=O)NCC1(C)CCCCCC1 was tested, and the “% Inhibition” value was -16% and the Z score was 1.38. Cc1cccnc1CN(Cc1ccccc1)C(=O)[C@@H]1CC(C(C)C)=NO1 was tested, and the “% Inhibition” value was -15% and the Z score was 1.73. O=C(c1cc(Cl)cc(Cl)c1)N1CCC(c2nc(-c3ccc(Cl)cc3F)no2)CC1 was tested, and the “% Inhibition” value was 5% and the Z score was -0.66. OCc1ccccc1CNCc1c[nH]nc1-c1cccnc1 was tested, and the “% Inhibition” value was -1% and the Z score was 0.11. For CN1CCCC[C@@H]1CNc1nc(CCc2ccccc2)nc2c1cnn2C, the “% Inhibition” value was 2% and the Z score was -0.39. N#Cc1cc(CN2CC[C@H](NC(=O)c3cccnc3)[C@@H](O)C2)c[nH]1 was tested, and the “% Inhibition” value was 0% and the Z score was 0.03. In the case of O[C@H]1CN(CCN2CCN(c3ccccc3)CC2)C[C@@H]1N1CCOCC1, the “% Inhibition” value was -3% and the Z score was 0.29. With Cc1nc[nH]c1CN1CCC(c2[nH]ncc2-c2cccc(F)c2)CC1 the “% Inhibition” value was -8% and the Z score was 1.17.

Source: ChEMBL document CHEMBL4888484, “Replenishing the malaria drug discovery pipeline: Screening and hit evaluation of the MMV Hit Generation Library 1 (HGL1) against asexual blood stage Plasmodium falciparum ,using a nano luciferase reporter read-out” (2022)
